# Laboratory results published in the supplement of paper PMC11417369.
# ± gives the standard deviation of the averaged measurements. Some of the results follow.
# Tested on: PfAP2-I AP2 domain 3 (GST-tagged)
# Assay: gcPBM binding intensity (ln(normalized median fluorescence intensity)); higher = stronger DNA binding
# Outline: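 Binding intensity is defined as the maximum Masliner-normalised natural-log median intensity across replicate spots for either probe orientation. It was measured on an Agilent 4 × 180k array of primer-extended double-stranded 36-bp intergenic genomic probes and negative controls, to which GST-tagged P. falciparum DNA-binding domains made in E. coli were applied for 1 h in 1× PBS with 1% milk, 0.2 mg/ml BSA, 0.5% salmon testes DNA and 0.03% Triton X-100. Detection was by Alexa488 anti-GST antibody and scanning at 488 nm.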
row,Sequence,gcPBM binding intensity (ln)
1,TACATTCGGAGTAAAAAAAAATTTATACAATTACTT [XGTACX_negctrl_site29],7.38 ± 0.73
2,TGTGTATATAAATAATGTACATATATATTTTTTTAT [XGTACX_site7341],7.79 ± 0.22
3,GTAAAAAAAAAAAAAAGTACATTATACATATATTTA [XGTACX_site5447],7.53 ± 0.12
4,AAAAATGTATGTATGGTGCAGTATTCATATCATTTT [GTGCAC_site9458],10.93 ± 0.057
5,AAAATGAACAAACACACACACATATATATATATATA [CACACA_site2403],9.33 ± 0.31
6,TTATTGTGTAAGATGATTTTCTTCGTCACTTTGAAA [CACACA_negctrl_site1814],7.12 ± 0.48
7,TCTTGAAAAAGAATCAATCGGTCGACAAAAAAAAAA [CACACA_negctrl_site1099],8.34 ± 0.64
8,AAAAAACACTTAAGGTGTACCTTTTAATATAAGTAT [XGTACX_site2397],7.68 ± 0.57
9,ATATTCTTGTTTAATACACACTGTAGTATTATAGAT [CACACA_site6341],7.91 ± 0.62
10,TTTTTTAATATTTATTAATTAAACTTTGTTTTTGTT [XGTACX_negctrl_site454],7.25 ± 0.61
11,TAATATTATTATTTTACACACTTTTTTCCTTTTATC [CACACA_site2457],7.66 ± 0.72
12,AAAGAATTTAAATATTGTACGCAATATATAAAAAAA [XGTACX_site7616],7.88 ± 0.3
13,ATAATATTATACTTTGCACACATCTGAAATGACATA [CACACA_site3952],9.02 ± 0.3
14,TACAATTTGATATATACACACAAATAAATTATGCTT [CACACA_site6534],7.53 ± 0.47
15,AAAAGTACAATATATATGTATGTGTATAGAATGGTT [TGCATGCA_negctrl_site76],8.16 ± 0.75
16,TTTGATAAAATTGATATCCTATAATTATATAAATAA [GTGCAC_negctrl_site317],7.52 ± 0.4
17,AAAAAACAGACATACACACACACACCCATATATATA [CACACA_site3392],8.29 ± 0.97
18,GATAAAATAAAAGTGGGTACTTAAATATATATATAA [XGTACX_site8457],7.79 ± 0.43
19,AGAAAAGAAATTAGTTGTACTCTGATGAATTATCCT [XGTACX_site6284],7.56 ± 0.42
20,TACCCAAAGTTACATACACACTAATATTTACACCAT [CACACA_site4709],7.99 ± 0.61
21,GATGTTCATCACTACACACACAAAGAAATATAAATA [CACACA_site7294],7.74 ± 0.61
22,TAATAATAGTGAGAGTGTACTTTAAATAAAATATAT [XGTACX_site2850],7.97 ± 0.44

row,Sequence,gcPBM binding intensity (ln)
1,TTCTATATATATATAGACAAACGATAAAATAAAAAA [GTGCAC_negctrl_site142],7.92 ± 0.42
2,TGAAATGATATATAAACACACATATATAAATATGTA [CACACA_site7616],7.18 ± 0.37
3,AAATATAATTTGCGATGTACACATATATATTTATTT [XGTACX_site1568],7.69 ± 0.52
4,AAGAAAAAAAAAAAAAAAAAAAAAAAAAATTTATGA [TGCATGCA_negctrl_site294],7.39 ± 0.2
5,CAGTTATTTTAATGTGGTACACAATTTTAAAATTAT [XGTACX_site8571],8.07 ± 0.099
6,AATTTTATAAAAAGTAGTACATATCAAACACCTTGA [XGTACX_site2297],8.02 ± 0.28
7,ATATAAAATGAACATAGTACTTTTTATATATTTTAA [XGTACX_site7461],7.35 ± 0.37
8,TACCTATACCTATACACACACACACGGAAATAAATA [CACACA_site6750],8.26 ± 0.48
9,TGACTTTTTTTTTTTTTTTTTTTTTTTTATCTTTTT [CACACA_negctrl_site481],7.51 ± 0.29
10,TTATGATTATAACGTTTTGACATTAGGCATATATAT [CACACA_negctrl_site1396],7.68 ± 0.59
11,TGATGGGACATAAATATTGAGATGATCATAAGATAA [TGCATGCA_negctrl_site276],7.61 ± 0.85
12,TATATCATAAAAAATTGTACATATATATATTATATA [XGTACX_site6726],7.63 ± 0.25
13,AAAGATAATATATGCACACATATAAATATATAAATA [CACACA_site3477],9.21 ± 0.35
14,AAAAAAAAAAAAAGTACACACTTTTGCGTACAAGTA [CACACA_site5672],8.09 ± 0.34
15,TATTTATTATATAAATGTACATAATATATGTATGTC [XGTACX_site2815],7.7 ± 0.36
16,GGATAAGATGTATATACACACAATTTAAAAAAATAA [CACACA_site910],7.88 ± 0.71
17,GTGTAATTTATTGTGTTGCACTTTTTTTTTTTTTTT [GTGCAC_site9644],9.37 ± 0.22
18,AATACAATTTTTAACACACACACAATAATACAGATA [CACACA_site4823],8.01 ± 0.33
19,TTAATATAGGAATATGCACACATATATACATACATA [CACACA_site8432],8.78 ± 0.057
20,AAGATAGACTCATATGCATGCATTCACATACCAACA [TGCATGCA_site179],8.19 ± 0.84
21,TTTAATTTGTTATACACACACAAAAAAAATTATAAA [CACACA_site3937],7.8 ± 0.35
22,ATTCTATATTTAAATGCATGCACTTTCTATTTTTTT [TGCATGCA_site435],8.47 ± 0.79

row,Sequence,gcPBM binding intensity (ln)
1,GACACTTTGAAGGGTACATGCAGAAAAAAAAAAAAA [TGCATGCA_site89],8.37 ± 0.81
2,TTTTATTTATCTAATTGTACTCATTCTTTTTTGATG [XGTACX_site2876],7.76 ± 0.27
3,GCTAAAAGTATATGCACACACATATAGATGCACATA [CACACA_site6868],10 ± 0.14
4,TTTTAAAAAAAAAAAAAAAAAATTAAAATAATTCAA [TGCATGCA_negctrl_site69],6.97 ± 0.47
5,ATAAAATAATTAATGGGTACATAATTAAATAAAGAG [XGTACX_site3309],8.24 ± 0.44
6,AATGTGCCCACGCGTACACACAAAAAAAGAAAAAAA [CACACA_site2003],8.31 ± 0.17
7,CATACATAGAAACACACACACACACCCACCCACAAA [CACACA_site494],8.4 ± 0.65
8,ATATATATATATCATAGTACACATATGTGTCTCGTG [XGTACX_site774],9.14 ± 0.11
9,TTGTTATAGAAGCATTCACACACACCCATACATACA [CACACA_site8414],8.2 ± 0.099
10,AAGTTAACAATATGAAGTACAAATGAAAAAAAAAAA [XGTACX_site666],8.18 ± 0.73
11,ATATATATTTATTTATGTACGAATAAATTTACGAAT [XGTACX_site5190],7.88 ± 0.35
12,AATATCATTATATAAGTGCATTTTTTAAAAGATAAA [GTGCAC_site9479],9.04 ± 0.22
13,TTAATAGGTCGAAGTAGTACATAAAAATATATATAT [XGTACX_site5960],8.87 ± 0.32
14,TAAACATTGTAAAGGAGTACAAAATTTTTTTTATGA [XGTACX_site7757],7.63 ± 0.59
15,AATAATAAAAAATACACACACATATATATATATTAC [CACACA_site3464],7.77 ± 0.47
16,TTTTTTTTTTTGTATCGTACATTTATAATGTTTATA [XGTACX_site6804],7.85 ± 0.76
17,CATACACAAGAAAATTCACACACACCCATATATATA [CACACA_site9288],8.44 ± 0.84
18,TCTTACAAAAAACAAACAGAGAAAAATATAAGGAAA [XGTACX_negctrl_site520],7.76 ± 0.47
19,AACATACAGAAACACACACACACACCCACACCCACA [CACACA_site493],8.2 ± 0.22
20,TTTTTTTCATATAACACACACACAAAAATAATGTGG [CACACA_site3688],8.03 ± 0.33
21,TAAGGTTCATTAAAGTGTACACATAAATACCGTAAC [XGTACX_site8212],8.11 ± 0.32
22,TGTAATAATTATTGCACGCACACAAAAACCTATAGA [CACACA_site2932],10.8 ± 0.88

row,Sequence,gcPBM binding intensity (ln)
1,ATTCTGAATGTTATGCGTACATATTAATCCTATTTA [XGTACX_site1216],7.92 ± 0.42
2,AAGTAAATATAATAAGGTACACATAAATAAATAAAT [XGTACX_site1740],7.96 ± 0.67
3,GGAAACACGATATATACACACATATTTATATTTATA [CACACA_site6250],7.88 ± 0.55
4,AGAAAAGGAAAATAAACATGCAAAAATAATATTAAA [TGCATGCA_site337],7.89 ± 0.76
5,TCCAAATAAATATATTGTACAGAATTATTGATACCT [XGTACX_site327],7.63 ± 0.36
6,ATGTTGTTATAAAGAGTGCAACGTATATGTATCCTT [GTGCAC_site9935],8.69 ± 0.47
7,TATATACCACATTGTTGTACGACACATTTACATTTT [XGTACX_site8370],8.21 ± 0.57
8,TTCTTTTAAAGGTATACATGCGCATGGATTTTTCAT [TGCATGCA_site223],7.95 ± 0.83
9,ATGTCTTTGAAAAAAAGTACTTAAAATTATAAAAAT [XGTACX_site147],7.96 ± 0.34
10,ACTGTCGTTTTAAAGAGTACATAAAATATTAAATTA [XGTACX_site3589],7.69 ± 0.35
11,AAAACTATTAATGCAAAAAATAAAATATAATAATAA [XGTACX_negctrl_site524],8.03 ± 1.1
12,TCAAAGCACAGATACACACACATATATATATATATA [CACACA_site287],9.37 ± 0.042
13,AATTAAAAAATTATCACACATATATATATATATATA [CACACA_site5789],9.42 ± 0.48
14,ATAAAAAAATAAAACACACACATATAGATTATAGAT [CACACA_site7343],7.88 ± 0.74
15,TAATTTGAAAAATTGTGTACTCATAAAATAAATAAA [XGTACX_site2138],7.97 ± 0.3
16,GATTTATATATATAAAATAATTGAATATTTTCTTTT [CACACA_negctrl_site801],7.35 ± 0.49
17,TTTATTTTTCATAATTGTACAAAAATAAATGGAAAC [XGTACX_site5144],8.46 ± 0.32
18,ATAGATGATATACGTAAACACACAAATAAAAAAAAT [CACACA_site9095],7.92 ± 0.71
19,TACAAATATAGACACACACACATATATATATATATA [CACACA_site585],9.38 ± 0.63
20,CATATATCATAAATATGTACGAAATAAAAGAATCAT [XGTACX_site942],7.96 ± 0.69
21,TTTTCTAAAATATTCATAATAAATCAAAAAAAAAAA [GTGCAC_negctrl_site320],7.82 ± 0.76
